# The campaign covered roughly 310,000 compounds. About 2,200 (0.71%) showed an effect of 50% or more. Effects have a minus sign here. This is one part of the list.
# Target: human ether-à-go-go-related gene (hERG) potassium channel (human, UniProt Q12809)
# Assay: primary screen, population patch clamp on CHO cells stably expressing hERG
# Sequence of human ether-à-go-go-related gene (hERG) potassium channel (Q12809 whole entry, looked up): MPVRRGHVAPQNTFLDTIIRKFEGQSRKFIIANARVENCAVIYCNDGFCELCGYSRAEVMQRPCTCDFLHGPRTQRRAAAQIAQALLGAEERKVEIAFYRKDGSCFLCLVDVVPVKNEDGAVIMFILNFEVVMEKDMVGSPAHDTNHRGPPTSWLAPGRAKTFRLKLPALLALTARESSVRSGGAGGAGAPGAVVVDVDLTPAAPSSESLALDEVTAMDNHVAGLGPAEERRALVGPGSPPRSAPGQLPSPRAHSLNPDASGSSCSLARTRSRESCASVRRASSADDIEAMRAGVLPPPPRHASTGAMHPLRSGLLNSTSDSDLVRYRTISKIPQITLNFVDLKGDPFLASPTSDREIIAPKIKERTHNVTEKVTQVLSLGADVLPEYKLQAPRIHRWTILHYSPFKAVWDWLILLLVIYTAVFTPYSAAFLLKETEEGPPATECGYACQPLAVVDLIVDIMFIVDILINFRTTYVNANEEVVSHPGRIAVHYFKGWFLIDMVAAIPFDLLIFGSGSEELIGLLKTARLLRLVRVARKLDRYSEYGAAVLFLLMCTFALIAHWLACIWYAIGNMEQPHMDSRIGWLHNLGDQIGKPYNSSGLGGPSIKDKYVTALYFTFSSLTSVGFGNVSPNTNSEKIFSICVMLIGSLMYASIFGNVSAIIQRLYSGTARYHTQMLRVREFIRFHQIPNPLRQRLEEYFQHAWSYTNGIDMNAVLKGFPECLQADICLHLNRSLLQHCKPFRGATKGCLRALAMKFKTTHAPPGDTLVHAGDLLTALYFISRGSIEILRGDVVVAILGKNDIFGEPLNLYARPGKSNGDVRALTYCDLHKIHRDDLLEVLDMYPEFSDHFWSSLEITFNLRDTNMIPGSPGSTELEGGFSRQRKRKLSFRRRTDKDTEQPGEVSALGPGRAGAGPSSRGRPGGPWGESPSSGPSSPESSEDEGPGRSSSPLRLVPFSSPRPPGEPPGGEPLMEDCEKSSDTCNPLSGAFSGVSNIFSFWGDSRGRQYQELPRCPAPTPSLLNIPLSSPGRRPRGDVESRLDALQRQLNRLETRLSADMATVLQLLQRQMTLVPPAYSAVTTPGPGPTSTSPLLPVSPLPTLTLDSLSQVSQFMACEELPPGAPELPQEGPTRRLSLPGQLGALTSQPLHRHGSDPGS
row,Compound,"hERG current change (%, negative = inhibition) at 1uM [%]"
1,O=C(NC1=NCCS1)c1ccc([N+](=O)[O-])cc1Cl,5.24
2,CC(=O)C(=Cc1cn(-c2ccccc2)nc1-c1ccccc1)C(C)=O,-3.92
3,Cc1ccc(-c2c[n+](CC(=O)c3ccc(Br)cc3)c3n2CCCCC3)cc1.[Br-],-0.618
4,COC(=O)Cn1c2ccc(F)cc2c2nc(C)sc21,16
5,COc1cccc(NC(=O)c2ccc(N3C(=O)C4CC=C(C)CC4C3=O)cc2)c1 (centres unmarked),12.4
6,CC(=O)N1c2ccc(S(=O)(=O)N3CCC(C(=O)N4CCCCC4)CC3)cc2CC1C (centres unmarked),14.3
7,Nc1nnc(CC(=O)N2CCCCC2)s1,9.17
8,CCCCC(=O)C1C(=O)NC(=O)NC1=O,4.58
9,COc1cccc2c(=O)c3c([nH]c12)OC(C)(C)C3,13.7
10,COCCNc1nc(-c2cc3ccccc3o2)cs1,8.37
11,CCOc1ccc(NC(=O)CSc2nnc(C)n2CCCOC)cc1,12.3
12,CCCCN=C1NN=C(c2ccc3c(c2)OCCO3)CS1,-0.367
13,C=CCNC(=O)/C(=C\C=C\c1ccccc1)NC(=O)c1ccc(OCCCC)cc1,8.17
14,CCC1CCC/C1=N\NC(=O)CCC(=O)Nc1ccccc1Cl (centres unmarked),12
15,Cn1cnnc1SCC(=O)Nc1sccc1C#N,5.3
16,Cc1cc(C(=O)Nc2ccc3c(c2)OCCO3)nn1C(C)(C)C,7.95
17,COCCOC(=O)c1c(C)n(C)c2ccc(OC(=O)c3ccco3)cc12,-3.05
18,CCOC(=O)C(O)(c1ccc(N(C)C(=O)COc2ccccc2)cc1)C(F)(F)F (centres unmarked),-11.9
19,CN(C)CCCN=Cc1c(O)n(Cc2ccco2)c(=O)[nH]c1=O,10.6
20,CCOC(=O)C1(Cc2ccccc2)CCCN(CCCn2cccn2)C1 (centres unmarked),3.88
21,O=C(CN(C(=O)c1csnn1)c1ccc(F)cc1)NCCc1ccccc1,14.1
22,Nc1nc2n(n1)C(c1c(F)cccc1Cl)CC(c1ccc(F)cc1)N2 (centres unmarked),-37.2
23,CCOCCCNC(=O)c1ccc2c(c1)OCO2,2.77

row,Compound,"hERG current change (%, negative = inhibition) at 1uM [%]"
1,Cc1cc(C)cc(C(=O)n2cnnc2N)c1,11.3
2,COc1cccc(-c2nnc(N)o2)c1,7.74
3,CCS(=O)(=O)N1CCC(C(=O)NCc2ccc(F)cc2)CC1,12.2
4,COc1ccc(C(CC(=O)N2CCCC2)c2c(O)cc(OC)cc2OC)cc1 (centres unmarked),11.1
5,COc1ccc(NC(=O)c2ccc(COc3ccccc3)o2)c(OC)c1,10.8
6,O=C(Nc1nonc1NC(=O)C1CCCCC1)C1CCCCC1,12.8
7,COc1ccc(-c2nnn(CC(=O)N(C3CCCCC3)C(C)C(=O)NC3CCCC3)n2)cc1OC (centres unmarked),-6.3
8,O=C(NC1CCCCCCC1)c1ccc2c(c1)N(Cc1ccc(F)cc1)C(=O)CS2=O (centres unmarked),-2.87
9,Cc1ccc(S(=O)(=O)NNC(=S)NCC2CCCO2)cc1 (centres unmarked),11.6
10,C=CCn1c(-c2ccccc2)n[nH]c1=S,8.84
11,COc1ccc(CCNC(=O)c2cccnc2)cc1,6.01
12,C[C@@]12C(=O)N(Cc3ccccc3)CC(=O)N1[C@H]1c3cc(Cl)ccc3OC[C@@H]1[C@@H]2c1ccccc1,13.9
13,COc1ccc(/C(C#N)=C/c2c(-c3ccc(Cl)cc3)nc3c(C)cccn23)cc1,15.7
14,CCC(Sc1ccccn1)C(=O)Nc1nnc(C)s1 (centres unmarked),12.1
15,COc1cc(CNc2ccccc2SC)cc(OC)c1OC,12.8
16,CC(C)C(=O)NC(=O)[C@@H]1CCCN1C(=O)/C=C/c1ccccc1,12
17,Cc1ccc(NS(=O)(=O)c2cc(NC(=O)c3ccc4c(c3)NC(=O)CS4)ccc2Cl)c(C)c1,0.525
18,N#C/C(=C/c1ccc(N2CCOCC2)o1)C(=O)NC1CCCCC1,5.09
19,CC1C(=O)NC(=O)C1c1ccccc1 (centres unmarked),13.3
20,Cn1c(NCc2cc(Br)ccc2O)nc2ccccc21,5.71
21,O=C(Nc1ccccc1)NC1(C(=O)NCCCN2CCOCC2)CCCCC1,5.99
22,O=c1cc(O)c2ccccc2n1Cc1ccccc1,14.7
23,CC1CN(C(=O)c2cc3c(=O)n4ccccc4nc3s2)CC(C)O1 (centres unmarked),-0.692

row,Compound,"hERG current change (%, negative = inhibition) at 1uM [%]"
1,Cc1ccc(CN2C(=O)C(CC(C)C)Nc3ncnc(N4CCN(c5ccccn5)CC4)c32)cc1.O=C(O)C(F)(F)F (centres unmarked),-27.5
2,CC(C)OCC1CC(CC(=O)Nc2ccc([N+](=O)[O-])cc2)C(=O)O1 (centres unmarked),5.8
3,CCOC(=O)C(NC(=O)c1cccnc1)(Nc1cccc(C)n1)C(F)(F)F (centres unmarked),7.41
4,O=C(NC1CC1)c1cccc(Br)c1,14.2
5,Cc1cccc(NC(=S)NCCc2ccccn2)c1,12.5
6,CCNC(=S)N(CCc1c(C)[nH]c2ccc(Cl)cc12)Cc1cccnc1,-1.95
7,COc1cccc(NC(=S)N2CCC(N(C)CC3CCCO3)CC2)c1 (centres unmarked),1.81
8,CCCCN1C(=O)CC(N2CCOCC2)C1=O (centres unmarked),10.8
9,Cc1[nH]c(C(=O)N/N=C/c2ccc(N(C)C)cc2)c(C)c1C(=O)N/N=C/c1ccc(N(C)C)cc1,9.04
10,COc1ccc(C(=O)Nc2cc(OC)c(NC(=O)c3ccco3)cc2OC)cc1,4.64
11,COc1cc2ccccc2cc1C(=O)Nc1ccc(C)cn1,8.74
12,CCOC(=O)c1ccc(N/C(=N\S(=O)(=O)c2ccccc2C)c2ccccc2)cc1,9.53
13,CC(=O)N1CCN(CC(O)COc2ccc(S(=O)(=O)N3CCOCC3)cc2)CC1.Cl (centres unmarked),14.1
14,CCOC(=O)c1c(C)n(-c2ccc(OC)cc2)c2ccc(O)c(CN(C)C)c12.Cl,1.29
15,O=S(=O)(Nn1cnnc1)c1ccc2ccccc2c1,20.5
16,Cc1cc2cc(CNC(=O)COc3ccccc3)ccc2n1C,5.6
17,CN(CC(=O)Nc1ccc(C#N)cc1)CC(=O)Nc1ccc(N2CCOCC2)cc1,6.03
18,Cc1cc(C(c2cc(C)c(N)c(C)c2)c2ccco2)cc(C)c1N,6.25
19,O=S(=O)(c1ccc2ccccc2c1)N1CCN(S(=O)(=O)N2CCCCC2)CC1,-5.1
20,Cc1cc(C)cc(NC(=O)CSc2nnc(CNC(=O)c3cccs3)o2)c1,6.1
21,Cc1cc(/C=C(\C#N)C(=O)NC2CCCCCC2)c(C)[nH]1,11.3
22,O=C1c2ccccc2C(=O)N1CSc1ncccn1,1.65
23,COc1cc(/C=C(\C#N)C(=O)NCc2cccs2)ccc1O,21.1

row,Compound,"hERG current change (%, negative = inhibition) at 1uM [%]"
1,CNC(=O)C(=O)Nc1c(C)cc(C)cc1C,18.7
2,CCC(=O)N(CCC1(C(C)C)CCOC(C)(C)C1)C(C)c1cccs1 (centres unmarked),10.3
3,C=CCN1C(=O)C(O)(CC(=O)c2ccc(-n3cccc3)cc2)c2ccccc21 (centres unmarked),-3.29
4,COC(=O)C1=C(c2ccc(F)cc2OCc2ccccc2)C[C@@H]2CC[C@H]1N2C(=O)NC(C)C,8.04
5,Cc1oc(=O)c(NC(=O)c2ccccc2)cc1C(=O)c1ccccc1,10.9
6,COc1cccc(CNC(=O)CSCc2cnn(-c3ccccc3)c2-n2cccc2)c1,-4.57
7,Oc1ccc(/C(Cc2ccccn2)=N\Nc2ccccc2)c(O)c1,0.966
8,COc1ccc(CN(C(=O)COc2ccccc2)c2ccccc2C(=O)O)cc1,22
9,COC(=O)c1ccc(OC)c(Cn2c(=O)n(C)c(=O)c3ccccc32)c1,10.9
10,COc1cc(Br)cc(CN2CCN(C=O)CC2)c1O,7.81
11,CN(C)CCn1c(=O)n(Cc2ccccc2)c(=O)c2c3c(sc21)CCCCC3,6.62
12,CC(=O)Nc1ccc(S(=O)(=O)N2CCC(C(=O)NCc3ccncc3)CC2)cc1,15.1
13,CCc1noc(C)c1C(=O)Nc1cc(S(=O)(=O)N(CC)CC)ccc1N1CCOCC1,2.71
14,O=C(Nc1ccccn1)C1CCN(S(=O)(=O)c2cccc3nonc23)CC1,2.37
15,Cc1ccc(CCSc2ccc(F)cc2)cn1.O=C(O)C(=O)O,9.97
16,O=C1CC(=O)N2N=C(c3ccc([N+](=O)[O-])cc3)SC2=N1,8.94
17,CC(C(=O)N=Nc1c(O)[nH]c2ccccc12)n1cnc2ccccc2c1=O (centres unmarked),8.48
18,CCOC(=O)CCCNC(=O)COC(=O)c1cccc(C)c1O,14
19,Fc1ccc(-c2cc3nc(-c4ccccc4)cc(N4CCOCC4)n3n2)cc1,2.46
20,COC(=O)CCc1nc2ccccc2nc1OC,16.6
21,CC(=O)NCC(=O)OCC(=O)c1ccc(C)cc1,14.4
22,CC1CCN(S(=O)(=O)c2ccc3c(c2)N(CC(=O)NCCCN2CCCC(C)C2)C(=O)CO3)CC1 (centres unmarked),13.6
23,CC(C)N1CCC(=NNC(=O)c2ccc(Br)o2)CC1,8.02

# Reference: publication PMC4336329 (PLoS ONE, 2015)
